Measured values: PubChem BioAssay AID1346428 (National Center for Advancing Translational Sciences (NCATS), 2018)
Out of some 48,000 compounds screened, about 1,200 (2.5%) were called active. Roughly 2% stayed inconclusive and do not appear here.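 Rule for the calls: active = activation of at least 60% and not above a set upper limit (about 1 call in 100 departs from these limits); inconclusive = activation of 40% to 60%, or above that upper limit; inactive = activation under 40%.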 This is one part of the list.

Each molecule was assayed against Probable G-protein coupled receptor 32 (Homo sapiens) (UniProt O75388) (assay: qHTS for Agonists of Human Resolvin D1 Receptor DRV1). Settings: CHO-K1 GPR32 beta-arrestin PathHunter luminescence, 90 min; at 76.9 µM; stronger effect = higher value; zero percent set by DMSO-only wells.
Sequence of UniProt O75388 (O75388 whole entry, looked up): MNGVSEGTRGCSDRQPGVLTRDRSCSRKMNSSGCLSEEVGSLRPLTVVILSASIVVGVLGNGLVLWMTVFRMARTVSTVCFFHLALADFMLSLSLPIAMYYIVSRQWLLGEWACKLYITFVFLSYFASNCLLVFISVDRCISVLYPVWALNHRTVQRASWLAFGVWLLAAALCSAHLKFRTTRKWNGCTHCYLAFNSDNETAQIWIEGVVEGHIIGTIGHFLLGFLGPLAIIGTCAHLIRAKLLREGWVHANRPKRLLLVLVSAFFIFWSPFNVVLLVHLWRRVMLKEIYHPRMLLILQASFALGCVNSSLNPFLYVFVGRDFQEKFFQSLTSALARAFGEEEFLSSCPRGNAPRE
Method in brief: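 Readings come from a cell-based beta-arrestin complementation format: CHO-K1 GPR32 stable cells (2,500/well) treated 90 min with compounds, then beta-Gal substrate added for 1 h before chemiluminescence imaging.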
Note: 0% is about no effect.

activation, inactive:
Cc1cc(C)cc(OCCCn2c(CCNC(=O)C3CCCCC3)nc3ccccc32)c1 -13.3%
Cc1ccc(C)c(NC(=O)Cn2cc(C(=O)c3ccc(Cl)cc3)c(=O)c3ccc(C)nc32)c1 12%
O=C(CC1C(=O)OCCN1Cc1ccccc1)Nc1ccc(F)cc1 (stereo not drawn) -2.42%
N#Cc1ccc(CSc2nc3c(c(=O)[nH]2)CCC3)cc1 12.5%
COc1cc(NC(=O)CSc2nc(-c3ccc(C)cc3)nc3c2Cc2ccccc2O3)cc(OC)c1 7.6%
Cc1cccc(C)c1-n1ncc(C(=O)N2CCN(c3ccccn3)CC2)c1C1CCN(C(=O)OC(C)(C)C)CC1 -0.687%
CC1CCN(S(=O)(=O)c2ccc(C(=O)Nc3sc4c(c3C(N)=O)CC(C)(C)NC4(C)C)cc2)CC1 -30.1%
CCC1CCc2nc3sc(C(=O)Nc4ccc(F)cc4F)c(N)c3cc2C1 (stereo not drawn) 21.7%
CCOC(=O)c1cc(C)n(CC2CCC(C(=O)Nc3ccc(Cl)cc3)CC2)c1C (stereo not drawn) -3.24%
COc1cc(NS(=O)(=O)c2ccc(NC(=O)c3ccccc3C(=O)O)cc2)nc(OC)n1 -4.27%
CCCCNC(=O)CSc1nc2nc(C)c(Cc3ccccc3C)c(C)n2n1 -16.2%
COc1cc(OC)c(NC(=O)NC(C)c2c(-n3cccc3)sc(C)c2C)cc1Cl (stereo not drawn) -20.7%
Cc1ccc2cccc(NC(=O)c3ccc(-c4cccc([N+](=O)[O-])c4)o3)c2n1 34.5%
CCOc1ccc(CCNC(=O)Cn2nnc(-c3ccccc3)n2)cc1OCC -0.315%
CC(=O)Nc1cccc(C(=O)NCc2ccc3c(c2)CCN3C(=O)c2ccccc2)c1 -9.74%
COc1ccc(/C=C/c2nc(C#N)c(NCCc3ccc(OC)c(OC)c3)o2)cc1OC -2.73%
COc1cccc(C(=O)Nc2cc(-c3ccccc3)no2)c1 7.47%
CC(C)CC(=O)Nc1ccc(C(=O)OCc2cc(=O)n3nc(C(C)C)sc3n2)cc1 0.802%
CCOC(=O)c1sc(NC(=O)/C=C/c2ccc(OCC)cc2)c(C(=O)OCC)c1C 1.83%
COc1ccc(C(=O)N2CC(=O)Nc3ccc(F)cc3C2c2ccc(F)cc2)c(OC)c1 (stereo not drawn) -17.9%
CCOc1ccccc1NC(=O)Cn1cnc2onc(-c3ccc(F)cc3)c2c1=O -1.94%
O=C(OCc1cc(=O)n2nc(C3CC3)sc2n1)c1ccc(F)cc1 -21.2%
CCCc1nc(C)c2c(=O)[nH]c(-c3cc(S(=O)(=O)N4CCN(CC)CC4)ccc3OCC)nn12 12.3%
Cc1cc(C)cc(NS(=O)(=O)c2ccc3[nH]cc(C(=O)N4CCCC4)c(=O)c3c2)c1 -4.92%
CC(C)CC(NS(=O)(=O)c1ccc2c(c1)oc(=O)n2C)C(=O)NCCc1ccc(Cl)cc1 (stereo not drawn) 2.87%
COC(=O)c1ccc(NC(=O)c2cc(S(=O)(=O)N3CCc4ccccc43)cn2C)cc1 -15.4%
Cc1ccc(NC(=O)c2oc3ccccc3c2NC(=O)c2cc3ccccc3o2)cc1 -2.33%
CCCCc1nnc(SCc2cc(=O)c3cc(C(=O)OCC)ccc3[nH]2)n1C -4.53%
O=C(NCc1cccnc1)C1CCN(Cc2cc3ccccc3n2Cc2cccc(Cl)c2)CC1 14.6%
O=C(Nc1cccc(C(=O)N2CCN(c3ccc(Cl)cc3)CC2)c1)c1nsc2ccccc12 -1.67%
CC1=C(C(N)=O)C(c2cccc(Br)c2)n2nc(SCc3ccccc3)nc2N1 (stereo not drawn) 0.76%
COc1cccc(NC(=O)Cn2cc(S(=O)(=O)N3CCCC3)c(S(=O)(=O)N3CCCC3)c2)c1 -8.48%
Cc1ccccc1CNC(=O)Cn1ncn2nc(-c3cccs3)cc2c1=O -9.87%
CCOc1ccccc1CNC(=O)c1cc2cc(S(=O)(=O)N3CCCCC3)ccc2n1C -0.884%
CCc1ccc2oc(-c3cccc(NC(=O)c4ccc(N5CCC(C)CC5)c([N+](=O)[O-])c4)c3)nc2c1 -5.85%
CCC(C)(CN(C)C)OC(=O)c1ccccc1 (stereo not drawn) 9.18%
CC(=O)Nc1ccc(NC(=O)CCNS(=O)(=O)c2cccc3nsnc23)cc1 -39.6%
CCC(Oc1ccccc1)C(=O)Nc1ccc2oc(-c3ccc(OC)cc3)nc2c1 (stereo not drawn) -14.5%
Cc1cccc(CSc2cn(CC(=O)N3CCCC3)c3ccccc23)c1 -13.6%
Cc1cc(N2CCCCC2)nc2ccc(NC(=O)/C=C/c3ccccc3OC(C)C)cc12 -29%
O=C(COc1ccc(S(=O)(=O)NC2CCCCC2)cc1)Nc1ccc(C(F)(F)F)cc1 15.1%
Cc1ccc(CNC(=O)CSCc2ccc(F)cc2)cc1 -14.5%
O=S(=O)(c1ccccc1)n1nc(-c2ccccc2)nc1NCc1ccc(Cl)cc1 -4.46%
CCOc1cccc(CC(=O)N2CCc3c([nH]c4ccccc34)C2c2ccc(F)cc2)c1OCC (stereo not drawn) -24%
O=C(O)CCc1nc2ccccc2[nH]1 0.246%
Cc1ccc(C(=O)COC(=O)C(CC(C)C)NC(=O)C2CCC(C)CC2)cc1 (stereo not drawn) -0.0314%
CCc1ccccc1NC(=O)c1ccc2nc(CCc3ccccc3)oc2c1 -12%
CCOc1ccc(CC(=O)Nc2c(C(=O)c3ccc(C)cc3)oc3ccccc23)cc1OCC 23.1%
CCC(=O)N1CCc2cc(Br)cc(S(=O)(=O)N3CCCC(C(=O)Nc4cccc(Cl)c4C)C3)c21 (stereo not drawn) -3.36%
CCCCNC(=O)CCn1c(=O)c2ccccc2n(Cc2ccccc2C#N)c1=O 0.495%
CC(=O)c1cccc(NC(=O)C2CCCN(c3nnc(-n4cccc4)s3)C2)c1 (stereo not drawn) 5.83%
O=C(Cc1cccc([N+](=O)[O-])c1)NCc1nc2cccnc2n1Cc1ccc(F)cc1 -16.4%
CCCN(CCC)CCCNC(=O)C1CCCN(S(=O)(=O)c2cccc3nsnc23)C1 (stereo not drawn) -10.3%
CCOc1ccc(NS(=O)(=O)c2cc(Br)cc3c2N(C(=O)C2CC2)CC3)cc1 14.9%
Cn1c(=O)cc(OCCCC(=O)Nc2ccc(F)cc2)c2ccccc21 0.209%
Cc1ccccc1-c1nc(CS(=O)(=O)CC(=O)N2CCN(c3ccccc3)CC2)c(C)o1 20.6%
COc1ccc(CNC(=O)Cc2csc3ccccc23)cc1OC -16.8%
CCc1nn(CC(=O)N2CCCCC2)c(=O)c2cc3sccc3n12 0.18%
COc1cccc(NC(=O)CCNS(=O)(=O)c2ccc(Br)s2)c1 13.1%
Cc1ccc(C)c(N2CCN(CCCNC(=O)Nc3cc(Cl)ccc3C)CC2)c1 -3.85%
COc1cc(Br)c(/C=C(\C#N)c2nc3ccccc3[nH]2)cc1OC -19.8%
CC(NC(=O)c1cc(Sc2ccc(F)cc2F)nc2ccccc12)c1ccccc1 (stereo not drawn) -25.1%
CCc1ccccc1NC(=O)C1CCC(CNS(=O)(=O)c2ccc3c(c2)CC(C)N3C(C)=O)CC1 (stereo not drawn) -8.88%
CC(C)CN1CCc2nc(N3CCN(c4ncccn4)CC3)ncc2C1 -25%
COc1cccc(C(=O)NCC(c2ccc(N(C)C)cc2)N2CCCC2)c1OC (stereo not drawn) -0.929%
CC(C)OCCCNC(=O)c1ccc(-n2c(-c3ccccc3)cc3c2CCCC3)cc1 -30.2%
Cc1ccc(N2C(=O)CSC23C(=O)N(CC(=O)NC2CCCCC2)c2ccccc23)cc1 (stereo not drawn) -27.3%
CCOc1ccc(-c2nnc(SCC(=O)NCCC(C)C)nc2-c2ccc(OCC)c(OC)c2)cc1OC -7.8%
Cc1cn2c(=O)c(S(=O)(=O)NCCc3ccccc3)c(C)nc2s1 2.6%
COc1ccc2nc(NC(=O)c3nc(SCc4ccc(F)cc4)ncc3Cl)sc2c1 45.4%
COc1ccc2nc(SCC(=O)c3c(C)[nH]c4ccccc34)nc(C)c2c1 18.1%
CCOc1ccc(OCC)c(NC(=O)C2CCN(S(=O)(=O)c3ccc(Br)s3)CC2)c1 -17.6%
Cc1ccc(N2CCN(C(=O)Cc3c(C(=O)O)c(C)cn3C)CC2)c(C)c1 -14.1%
Cc1ccc(S(=O)(=O)c2nnn3c2nc(N2CCN(c4ccc(F)cc4)CC2)c2cc(Cl)ccc23)cc1C 1.81%
O=C(Nc1ccc(F)cc1)[C@H](CSCc1ccccc1)N1Cc2ccccc2C1=O 10.6%
Cc1cccc(NC(=O)N2CCc3c(sc4c3CCCC4)C2c2ccc(F)cc2)c1 (stereo not drawn) 9.39%
COc1cccc(-n2c(=O)c3c(C)c(C(=O)N(C)C)sc3n(CC(=O)NCCc3ccc(OC)c(OC)c3)c2=O)c1 -1.32%
COc1ccc(-c2nc(C)c(CCNC(=O)Cc3ccc(F)cc3)s2)cc1OC 10.9%
CCc1ccc(NC(=O)C2CCN(C(=O)N3CC(CC)Oc4ccccc43)CC2)cc1 (stereo not drawn) -9.65%
CCc1ccc(NC(=O)CSc2nc3nccnc3c(=O)n2CCc2c[nH]c3ccccc23)cc1 7.42%
NC(=O)c1cccnc1 -17.1%

activation, active:
O=C(CSc1cn(CCNC(=O)c2c(F)cccc2F)c2ccccc12)Nc1ccc2c(c1)OCCO2 68.5%
COc1ccc(-n2c(=O)c3ccc(C(=O)NCc4ccc(C)cc4)cc3n(CC(=O)Nc3ccc(F)cc3)c2=O)cc1 93.6%
